Measurements published in publication PMC4336329 (PLoS ONE, 2015).
In all, about 310,000 compounds went through this assay and about 14,000 (4.5%) showed an effect of 50% or more. Effects have a minus sign here. The list shows a part of the results.

Biological target: human ether-à-go-go-related gene (hERG) potassium channel (human, UniProt Q12809)
Assay: primary screen, population patch clamp on CHO cells stably expressing hERG
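Further: peak tail current of the secondary pulse compared with the same well before compound.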

Chain of human ether-à-go-go-related gene (hERG) potassium channel (Q12809 whole entry, looked up): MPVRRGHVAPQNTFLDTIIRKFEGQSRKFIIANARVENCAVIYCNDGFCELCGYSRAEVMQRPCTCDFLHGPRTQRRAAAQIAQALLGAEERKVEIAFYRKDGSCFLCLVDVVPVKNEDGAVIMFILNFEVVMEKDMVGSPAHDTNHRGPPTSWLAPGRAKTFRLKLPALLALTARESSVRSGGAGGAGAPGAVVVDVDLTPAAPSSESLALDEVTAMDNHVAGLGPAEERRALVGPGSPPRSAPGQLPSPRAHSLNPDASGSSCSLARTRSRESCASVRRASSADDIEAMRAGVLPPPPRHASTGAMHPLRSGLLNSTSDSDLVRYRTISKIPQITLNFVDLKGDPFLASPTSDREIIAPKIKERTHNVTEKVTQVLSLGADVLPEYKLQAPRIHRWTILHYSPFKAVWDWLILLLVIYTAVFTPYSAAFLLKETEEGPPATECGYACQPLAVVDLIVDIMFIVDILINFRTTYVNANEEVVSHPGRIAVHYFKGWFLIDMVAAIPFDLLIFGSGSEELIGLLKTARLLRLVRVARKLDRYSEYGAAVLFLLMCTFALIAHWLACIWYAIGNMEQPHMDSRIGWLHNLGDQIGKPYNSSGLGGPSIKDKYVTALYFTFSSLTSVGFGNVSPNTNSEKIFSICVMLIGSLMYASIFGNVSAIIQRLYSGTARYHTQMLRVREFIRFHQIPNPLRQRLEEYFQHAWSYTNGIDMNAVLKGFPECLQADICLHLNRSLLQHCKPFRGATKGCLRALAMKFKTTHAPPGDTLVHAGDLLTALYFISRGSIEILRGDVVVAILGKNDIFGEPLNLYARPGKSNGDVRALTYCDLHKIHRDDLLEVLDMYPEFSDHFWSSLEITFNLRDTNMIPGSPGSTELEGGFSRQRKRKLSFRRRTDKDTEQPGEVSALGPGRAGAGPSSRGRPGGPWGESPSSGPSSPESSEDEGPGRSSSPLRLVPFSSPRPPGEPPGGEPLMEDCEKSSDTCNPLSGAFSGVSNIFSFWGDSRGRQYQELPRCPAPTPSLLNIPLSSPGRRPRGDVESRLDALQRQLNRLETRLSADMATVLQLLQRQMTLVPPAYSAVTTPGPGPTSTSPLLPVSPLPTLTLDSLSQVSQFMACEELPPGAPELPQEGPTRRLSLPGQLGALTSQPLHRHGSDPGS

Structure (SMILES) | hERG current change (%, negative = inhibition) at 10uM
CCN1C(=O)CC(NCc2ccc(S(N)(=O)=O)cc2)C1=O (stereo not shown) | 22.4%
Cc1ccc(NC(=O)CO/N=C/c2ccccc2C)c(C)c1 | -4.99%
Cc1cc(NC(=O)COn2nnc3ccc(Cl)cc32)no1 | 4.41%
CCc1cccc(Nc2cnn(C34C[C@@H]5C[C@@H](CC(CC(=O)O)(C5)C3)C4)c(=O)c2Cl)c1 | 19.1%
CC(=O)N1CCN(C(=O)CC2OC(=O)c3ccccc32)CC1 (stereo not shown) | 5.88%
C=CCOc1ccc(C2/C(=C(/O)c3ccc(OC)cc3)C(=O)C(=O)N2CCN2CCNCC2)cc1 (stereo not shown) | 9.52%
COC(=O)CNC(c1ccccc1)c1cc(C)ccc1NC(=O)c1cccc(Cl)c1 (stereo not shown) | -15.4%
O=C(Cc1cccs1)N1CCN(S(=O)(=O)c2ccc(F)cc2)CC1 | -2.76%
CCCOc1ccc(N2C(=O)CC(N3CCN(CCN=CC4=C(O)CC(C)(C)CC4=O)CC3)C2=O)cc1 (stereo not shown) | -13.2%
O=C1Nc2ccccc2C1(O)c1ccccc1 (stereo not shown) | 12.5%
CCOc1ccccc1NC(=O)NC1(C(=O)N2CCN3CCCC3C2)CCCCC1 (stereo not shown) | 6.9%
CC(=O)c1cccc(NC(=S)NNC(=O)c2ccc(C)c([N+](=O)[O-])c2)c1 | 23.8%
O=C1NC(=O)/C(=C\c2ccc(OCc3cccc([N+](=O)[O-])c3)cc2)N1 | 11.9%
Cc1ccc(-c2nnn(CC(=O)N3c4ccccc4CCc4ccccc43)n2)cc1 | 6.13%
Cc1ccc(CNC(=O)COc2ccc(S(=O)(=O)NC(C)C)cc2)cc1 | 10.5%
N#Cc1cccc(C(=O)OCC(=O)NCc2ccco2)c1 | 5.89%
COc1ccc(OC)c(NC(=O)CSc2ncccc2C(=O)O)c1 | 18.2%
COc1ccc(S(=O)(=O)N2CCC(C(=O)NCCN3CCOCC3)CC2)cc1C | 5.02%
COc1cccc(/C=N/Nc2ccccc2C(=O)O)c1O | 13%
CCC(C)(C)c1ccc(O)cc1 | 6.62%
CC(C)(C)c1ccc(C(=O)Nc2cnccn2)cc1 | -31.7%
CC(C)(C)NC(=O)Cn1c(SCC(=O)NCc2cccs2)nc2ccccc21 | 6.18%
O=C(CN1C(=O)c2cccc3cccc(c23)C1=O)N1CCN(Cc2ccc3c(c2)OCO3)CC1 | -41.3%
Cc1cccc(NC(=O)c2ccc(N3CCCCC3)c([N+](=O)[O-])c2)n1 | -2.96%
CC(C)CCc1noc(CN(CC2CCC2)CC2CCCO2)n1 (stereo not shown) | 1.05%
CCOC(=O)c1c(-c2ccccc2)oc2ccc(OC)cc12 | 1.46%
COc1cccc(NC(=O)CN(C)C(=O)CN2C(=O)NC(C)(c3ccc(C)cc3)C2=O)c1 (stereo not shown) | 4.25%
CC(C)(C)NC(=O)C(c1ccco1)N(C(=O)Cn1nnc(-c2ccc(F)cc2)n1)c1ccccc1 (stereo not shown) | -17.5%

Structure (SMILES) | hERG current change (%, negative = inhibition) at 10uM
CN1CCN(C(=O)c2ccc3c(=O)n4c(nc3c2)CCCCC4)CC1 | -0.383%
CCOc1cc(C)ccc1OCc1nnc(SCC(=O)Nc2cccc(C(=O)O)c2)n1-c1ccccc1 | 19.9%
CN1c2ccccc2N(C)C1c1c(O)ccc2ccccc12 | -0.366%
CCOC(=O)Cc1csc(NC(=O)c2ccc3c(c2)OCO3)n1 | -22.8%
COc1ccc(OC)c(N=c2oc3cc(O)ccc3cc2C(N)=O)c1 | 3.97%
CCc1noc(C)c1C(=O)OCC(=O)Nc1nc(-c2ccc(F)c(F)c2)cs1 | -1.03%
COc1ccc(OC)c(CNC(=O)C2CCN(C(=O)N(C)C)CC2)c1 | 7.09%
CC(C)(C)c1nnc(NC(=O)CN2C(=O)C3C4C=CC(C4)C3C2=O)s1 (stereo not shown) | 4.72%
CCN1CCN(CC(=O)NC2CCCCC2)C(=O)C1=O | 1.65%
CCCCSc1nnc(-c2ccc(OC)cc2)n1C | -20%
CCOc1cc(CNCc2ccc(C(=O)O)cc2)ccc1OC.Cl | 5.34%
O=C(Cc1cccc2ccccc12)N/N=C/c1ccc(Sc2nc3ccccc3s2)o1 | 14.4%
COc1ccc(C(O)Cc2nc3ccccc3n2C)cc1OC (stereo not shown) | 20.7%
CN(C)S(=O)(=O)c1ccc(Cl)c(NC(=O)CN2C(=O)NC(C)(C3CC3)C2=O)c1 (stereo not shown) | -9.33%
Cl.FC(F)(F)c1cc(CO[C@@H]2CCCN[C@@H]2c2ccccc2)cc(C(F)(F)F)c1 | -27.4%
CC(C)(C)OC(=O)N1CCC[C@H]1C(=O)OCC(=O)Nc1cc(S(C)(=O)=O)ccc1Cl | -16.1%
CCOC(=O)C1=C(C)N(CCCC(=O)O)C(=O)NC1c1ccccc1OS(=O)(=O)c1ccc([N+](=O)[O-])cc1 (stereo not shown) | 17.8%
Cc1ccc(NC(=O)NC2CCN(CC(=O)Nc3nccs3)CC2)cc1 | -6.52%
Cc1ccc(Cl)c(OCC(=O)Nc2ccc(S(=O)(=O)NC3=NCCCCC3)cc2)c1 | 37.4%
O=C(CCCCCCN1C(=O)c2ccccc2C1=O)Nc1nccs1 | 12.2%
CCCN(CC1CC1)C(=S)NC(=O)c1ccccc1Br | -4.58%
COC(=O)c1nn(-c2ccccc2)c(Cl)c1/C=N/OC(=O)c1ccc(Cl)c(Cl)c1 | 4.58%
O=C(CSc1nncc2ccccc12)Nc1ccc(C(=O)O)cc1 | 10.6%
Cc1ccc(-c2csc3ncnc(N4CCN(S(=O)(=O)c5cccs5)CC4)c23)cc1 | 14%
O=C(Nc1cc(Cl)ccc1N1CCCCC1)c1cccs1 | 6.9%
CCOC(=O)N1CCC(N(C(=O)Nc2cccc(OC)c2)C(C)CC)CC1 (stereo not shown) | -1.67%
Cc1nc2ccc(-c3nc4ccc(N)cc4[nH]3)cc2[nH]1 | 20.4%
